The densities may have been worked out from excess volumes.
Assay: xn = mol fraction of the nth substance listed
Conditions: 101.3 kPa

CCCCCC[n+]1ccn(C)c1.O=S(=O)([N-]S(=O)(=O)C(F)(F)F)C(F)(F)F + CC#N
mass density [kg/m3]
Conditions	298.15 K	313.15 K	328.15 K
x2 = 0	1371.9	–	1344.5
x2 = 0.0753	1364.4	1350.6	1336.9
x2 = 0.0943	1362.3	1348.6	1334.9
x2 = 0.1999	1349.9	1336	1322.2
x2 = 0.2894	–	1322.9	–
x2 = 0.3915	1318.6	1304.5	1290.3
x2 = 0.4968	1293.7	1279.3	1265
x2 = 0.6009	1260.2	1245.5	1230.9
x2 = 0.6954	1217	1202.1	1187.2
x2 = 0.8126	1133.1	1117.7	–
x2 = 0.8979	1028.2	–	996.2
x2 = 0.9493	928.7	912.5	–

CCCCCC[n+]1ccn(C)c1.O=S(=O)([N-]S(=O)(=O)C(F)(F)F)C(F)(F)F + CC(C)=O
mass density [kg/m3]
Conditions	288.15 K	293.15 K	298.15 K
x2 = 0	1381.1	1376.5	–
x2 = 0.0517	1375.5	1370.9	1366.2
x2 = 0.1039	1368.9	1364.2	–
x2 = 0.1657	1360.8	1356	–
x2 = 0.2655	1345.1	1340.4	1335.7
x2 = 0.3641	1325.7	–	1316.2
x2 = 0.4927	1293.3	1288.5	1283.7
x2 = 0.5924	1258.7	1253.8	1248.9
x2 = 0.6842	–	1211.1	1206.2
x2 = 0.8083	1127.3	1122.2	1117
x2 = 0.8954	1025.1	1019.8	1014.5
x2 = 0.9472	933.8	928.3	922.9

CCCCCC[n+]1ccn(C)c1.O=S(=O)([N-]S(=O)(=O)C(F)(F)F)C(F)(F)F + CC(C)O
mass density [kg/m3]
Conditions	298.15 K	313.15 K	328.15 K
x2 = 0	1371.9	1358.2	1344.5
x2 = 0.0621	1362.6	1348.9	1335.2
x2 = 0.0926	1357.8	1344	1330.3
x2 = 0.1725	1343.9	–	1316.4
x2 = 0.2926	1319.1	1305.2	1291.4
x2 = 0.38	1297	1283.1	1269.2
x2 = 0.5107	1255.4	1241.3	1227.2
x2 = 0.6078	1214.3	1200.1	1185.8
x2 = 0.7028	1161.6	1147.4	1133
x2 = 0.8064	1081	–	1052.4
x2 = 0.9052	964.8	951	936.7
x2 = 0.9473	895.5	882	867.8

CC#N + CCCCCC[n+]1ccn(C)c1.O=S(=O)([N-]S(=O)(=O)C(F)(F)F)C(F)(F)F
x1 = 1
Conditions	mass density [kg/m3]
298.15 K	776.6
313.15 K	760.2
328.15 K	751.1

CC(C)=O + CCCCCC[n+]1ccn(C)c1.O=S(=O)([N-]S(=O)(=O)C(F)(F)F)C(F)(F)F
x1 = 1
Conditions	mass density [kg/m3]
288.15 K	795.7
293.15 K	790
298.15 K	784.3

CC(C)O + CCCCCC[n+]1ccn(C)c1.O=S(=O)([N-]S(=O)(=O)C(F)(F)F)C(F)(F)F
x1 = 1
Conditions	mass density [kg/m3]
298.15 K	780.9
328.15 K	753.9

CCCO + CCCCCC[n+]1ccn(C)c1.O=S(=O)([N-]S(=O)(=O)C(F)(F)F)C(F)(F)F
x1 = 1
Conditions	mass density [kg/m3]
298.15 K	799.6
313.15 K	787.4
328.15 K	774.8

CCO + CCCCCC[n+]1ccn(C)c1.O=S(=O)([N-]S(=O)(=O)C(F)(F)F)C(F)(F)F
x1 = 1
Conditions	mass density [kg/m3]
298.15 K	785.2
313.15 K	772.2
328.15 K	758.7

CO + CCCCCC[n+]1ccn(C)c1.O=S(=O)([N-]S(=O)(=O)C(F)(F)F)C(F)(F)F
x1 = 1
Conditions	mass density [kg/m3]
298.15 K	786.6
313.15 K	772.4

ClCCl + CCCCCC[n+]1ccn(C)c1.O=S(=O)([N-]S(=O)(=O)C(F)(F)F)C(F)(F)F
mass density [kg/m3]
Conditions	288.15 K	293.15 K	298.15 K
x1 = 0.0301	1381	1376.4	1371.7
x1 = 0.1024	1380.5	1375.8	1371.1
x1 = 0.1412	1380.2	1375.5	–
x1 = 0.2765	1378.9	1374.1	1369.2
x1 = 0.3243	1378.4	1373.5	1368.7
x1 = 0.4846	–	1370.9	1365.8
x1 = 0.536	1375.1	1369.8	1364.6
x1 = 0.694	1370.6	–	1359.3
x1 = 0.7854	1366.4	1360.3	1354.2
x1 = 0.8916	1357.6	1350.6	1343.6
x1 = 0.943	1350.1	–	1334.6
x1 = 1	1334.8	1325.7	1316.5

CCCCCC[n+]1ccn(C)c1.O=S(=O)([N-]S(=O)(=O)C(F)(F)F)C(F)(F)F + CCCO
mass density [kg/m3]
Conditions	298.15 K	313.15 K	328.15 K
x2 = 0	1371.9	1358.2	1344.5
x2 = 0.0406	1366.3	1352.5	1338.9
x2 = 0.1017	–	1343.3	–
x2 = 0.1756	–	1331	1317.3
x2 = 0.2693	1326.8	1312.9	–
x2 = 0.3963	–	1282.5	–
x2 = 0.4944	1266.5	–	1238.6
x2 = 0.608	1221.5	1207.5	1193.5
x2 = 0.7013	1171.6	1157.7	–
x2 = 0.8	–	1084.6	1070.7
x2 = 0.8986	–	975.7	962.1
x2 = 0.9422	920.8	907.9	–

CCCCCC[n+]1ccn(C)c1.O=S(=O)([N-]S(=O)(=O)C(F)(F)F)C(F)(F)F + CCO
mass density [kg/m3]
Conditions	298.15 K	313.15 K	328.15 K
x2 = 0	–	1358.2	1344.5
x2 = 0.0649	1364.6	1350.8	1337.2
x2 = 0.0942	1361.1	1347.3	1333.6
x2 = 0.1816	1349.4	1335.6	1321.8
x2 = 0.2856	–	–	1304.9
x2 = 0.3939	1310.8	1296.8	–
x2 = 0.4966	1284.1	1270	1255.9
x2 = 0.5943	–	1236.6	–
x2 = 0.6976	–	1187.6	–
x2 = 0.8045	–	1111.2	–
x2 = 0.847	1082.7	1068.5	1054.2
x2 = 0.9017	1010.2	996.2	–
x2 = 0.9482	–	911.4	–

CCCCCC[n+]1ccn(C)c1.O=S(=O)([N-]S(=O)(=O)C(F)(F)F)C(F)(F)F + CO
mass density [kg/m3]
Conditions	298.15 K	313.15 K
x1 = 0.0198	871	857
x2 = 0	–	1358.2
x2 = 0.0538	1367.7	1353.9
x2 = 0.1081	–	1349.3
x2 = 0.1812	1356.2	1342.3
x2 = 0.2739	1345.9	1331.9
x2 = 0.3962	–	1314.3
x2 = 0.4824	1312.1	–
x2 = 0.5846	1286.2	–
x2 = 0.6882	1248	1233.5
x2 = 0.7994	1181.3	1166.7
x2 = 0.8991	1068.5	1053.8
x2 = 0.9495	966	–

CCCCCC[n+]1ccn(C)c1.O=S(=O)([N-]S(=O)(=O)C(F)(F)F)C(F)(F)F + ClCCl
x2 = 0
Conditions	mass density [kg/m3]
288.15 K	1381.1
298.15 K	1371.9

— a compilation of properties of binary mixtures (doi:10.1057/9780230359512_28)
